Reference: paper PMC5438246
These are yes or no findings as the source states them, for the method shown. Binding seen in cells or lysates may run through a third protein. Some binding calls cover weakened binding; strength is not graded here. Where a sequence is shown, tags or fusion partners need not be part of it.

T1: GFP:SNAP33 (Qbc-SNARE SNAP33 fused to GFP, estradiol-inducible) (Arabidopsis thaliana) (UniProt Q9S7P9)
T1 sequence: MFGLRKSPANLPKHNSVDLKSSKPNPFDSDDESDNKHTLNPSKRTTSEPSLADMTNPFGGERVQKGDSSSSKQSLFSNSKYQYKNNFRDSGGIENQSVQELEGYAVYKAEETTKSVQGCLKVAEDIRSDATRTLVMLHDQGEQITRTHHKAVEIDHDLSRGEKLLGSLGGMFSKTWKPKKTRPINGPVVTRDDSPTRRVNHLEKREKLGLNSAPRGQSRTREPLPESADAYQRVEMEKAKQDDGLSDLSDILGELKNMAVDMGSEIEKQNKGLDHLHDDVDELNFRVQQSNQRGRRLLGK

T2: YFP:NPSN11 (Qb-SNARE NPSN11 fused to YFP, estradiol-inducible) (Arabidopsis thaliana) (UniProt Q944A9)
T2 sequence: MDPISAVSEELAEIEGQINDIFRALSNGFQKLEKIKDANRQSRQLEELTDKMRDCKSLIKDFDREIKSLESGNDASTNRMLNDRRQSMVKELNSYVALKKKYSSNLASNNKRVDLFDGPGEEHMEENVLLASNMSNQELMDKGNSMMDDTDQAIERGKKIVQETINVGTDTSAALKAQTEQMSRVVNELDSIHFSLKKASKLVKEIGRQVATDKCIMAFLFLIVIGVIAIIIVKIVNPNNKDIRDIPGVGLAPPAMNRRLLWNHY

B1: Qc-SNARE SYP71 (protein, UniProt Q9SF29 1-266)
chain: MTVIDILTRVDSICKKYDKYDVDKQREANISGDDAFARLYGAFETQIETALEKAELVTKEKNRAAAVAMNAEIRRTKARLSEEVPKLQRLAVKRVKGLTTEELAARNDLVLALPARIEAIPDGTAGGPKSTSAWTPSSTTSRPDIKFDSDGRFDDDYFQESNESSQFRQEYEMRKIKQEQGLDMISEGLDALKNMASDMNEELDRQVPLMDEIDTKVDRATSDLKNTNVRLKDTVNQLRSSRNFCIDIVLLCIVLGIAAYLYNVLK
B2: Qbc-SNARE SNAP33 (endogenous) (protein, UniProt Q9S7P9 1-300)
chain: T1 sequence
B3: mRFP:PEP12 (Qa-SNARE PEP12 aka SYP21, mRFP-tagged, pKNOLLE::mRFP:PEP12) (protein, UniProt Q39233 1-279)
chain: MSFQDLEAGTRSPAPNRFTGGRQQRPSSRGDPSQEVAAGIFRISTAVNSFFRLVNSIGTPKDTLELRDKLQKTRLQISELVKNTSAKLKEASEADLHGSASQIKKIADAKLAKDFQSVLKEFQKAQRLAAEREITYTPVVTKEIPTSYNAPELDTESLRISQQQALLLQSRRQEVVFLDNEITFNEAIIEEREQGIREIEDQIRDVNGMFKDLALMVNHQGNIVDDISSNLDNSHAATTQATVQLRKAAKTQRSNSSLTCLLILIFGIVLLIVIIVVLV

Tests used:
[1] = target: T1, GFP:SNAP33 (Qbc-SNARE SNAP33 fused to GFP, estradiol-inducible) (Arabidopsis thaliana); assay: co-IP; protein extracts of Arabidopsis seedlings (wild type, big3, or gnl1 GNL1^BFA-sens.) with estradiol-induced YFP:NPSN11 or GFP:SNAP33, with or without 50 µM BFA (30 min, then BFA + 20 µM estradiol 210 min; traffic blocked at the TGN or at the ER); anti-GFP beads (GFP-trap) 2 hr in the cold; 50 mM Tris pH 7.5, 150 mM NaCl, 1 mM EDTA, 0.5% Triton X-100 (washes 0.2%); immunoblot
[2] = target: T2, YFP:NPSN11 (Qb-SNARE NPSN11 fused to YFP, estradiol-inducible) (Arabidopsis thaliana); assay: as above

Binder	binding [1]	binding [2]
B1	no binding	binds
B2		no binding
B3	no binding	no binding
